From the supplement of paper PMC10338343
± gives the standard deviation. Over roughly 5,500 sequences, “pre-steady-state target cleavage rate” has its median near 0.1; the highest 2% begin near 0.64. Only a part is listed here, and it is no random draw.

system: MIWI (PIWIL1) piRISC loaded with piRNA #2 (30 nt); experiment: pre-steady-state target cleavage rate (min^-1); MIWI and MILI are mouse PIWI proteins and EfPiwi is from a freshwater sponge; tags in brackets are library labels; higher = faster piRNA-guided slicing of the target; settings: guide: piRNA #2 5'p-UUAGGUAACCCAGUAGAUCCAGAGGAAUUC; auxiliary factor: 500 nM mouse GTSF1
Method: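 Cleave-'n-Seq: a library of target RNAs (target site embedded in constant flanks, ACAGCATTCCGCGTTAGTGATATCCG... 5' flank; DNA-blocked outside the site) at 0.1 nM was incubated with 1 nM active mouse MILI or MIWI piRISC (synthetic 5'-monophosphorylated piRNA guide) with or without 500 nM mouse GTSF1 at 33 °C for 1 min to 16 h. Uncleaved targets were sequenced and normalised to non-target controls, and the pooled three trials were fitted to a burst-and-steady-state model to give the pre-steady-state cleavage rate (min^-1; k3 is constrained to at most 1e-4). Sequence is the target site only; target names encode pairing extent (gX:gY) and contiguous / 1-mismatch / 2-mismatch / bulge geometry. Fits with R² ≤ 0 are excluded.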

Sequence	pre-steady-state target cleavage rate
CUUUUCCUGACGAUCUACUGGGUUACCUAA	0.121 ± 0.023
CUUAAGGAGUGGAUCUAAUGGGUUACCUAA	0.0117 ± 0.0041
CUUAAGGUCUGGAUCCACUGGGUUACCUAA	0.111 ± 0.013
CUAUUCGUCUGGAUCUACUGGGUAACCUAA	0.155 ± 0.033
CUUAAGGAGUGGCAUCUACUGGGUUACCUAA	0.0176 ± 0.0063
CAAAUCCUCUGGAUCUACUCGGUUACCUAA	0.102 ± 0.023
CUUAAGGAGUGGAUCUUCUGGGUUACCUAA	0.0111 ± 0.0062
CAAUUCCUCUGGAUCUAGAGGGUUACCUAA	0.0271 ± 0.0084
CUUCUCCUCUGGAUCUACUGGGUUACCUAA	0.26 ± 0.035
GAAAUCCUCUGGAUCUUCUGGGUUACCUAA	0.192 ± 0.038
CUAUUCCUCUGGAUCUACUGGGCUACCUAA	0.163 ± 0.024
CAAUUCCUCUGGAUCUAGUGGCUUACCUAA	0.00676 ± 0.0056
CUUUUCCUCUGGAUCUACAGGGUUACGUAA	0.276 ± 0.026
CUUAAGCUCUGGAUGUACUGGGUUUCCUAA	0.0607 ± 0.013
CUAUUCCUCACCAUCUACUGGGUUACCUAA	0.384 ± 0.049
CAAUUCCUCUGGAUCUACUGGGUUCCCUAA	0.301 ± 0.045
CUUAAGCUCUGGUUGUACUGGGUUACCUAA	0.331 ± 0.026
CUUAAGGUCUGGAUGUACUGGGUAACCUAA	0.0309 ± 0.025
CUUAUCCAGUGGAUCUACUGGGUUACCUAA	0.548 ± 0.047
CUUAACAUCUGGAUCUACUGGGUUACCUAA	0.276 ± 0.029
CUAUUCCUCUGCAUGUACUGGGUUACCUAA	0.47 ± 0.034
CUUAUCCUCUGGAUCUACUGGGUUAUCCUAA	0.413 ± 0.057
CUUAAGGAGAGGCAUCUACUGGGUUACCUAA	0.00586 ± 0.0038
CAAUUCCUCUGGAUCUACUGAGUUACCUAA	0.869 ± 0.075

Sequence	pre-steady-state target cleavage rate
CUAUUCCACUCGAUCUACUGGGUUACCUAA	0.703 ± 0.037
CUUAAGGAGACCUAGAUGUGGGUUACGAUA	< 0.0001
CUUAAGCUCUGGAUCUUCUGGGUUACGUAA	0.251 ± 0.027
CUUAAGCUCUGGAUGUACUGCGUUACCUAA	0.333 ± 0.049
CUUAAGGAGACCUAGAUCACGGUUACCUAA	< 0.0001
CUUAACCUCUGGAUGAACUGGGUUACCUAA	0.229 ± 0.018
CUUAAGCCUGGAUCUACUGGGUUACCUAA	0.276 ± 0.021
CAAGUCCUCUGGAUCUACUGGGUUACCUAA	0.245 ± 0.06
CUUAAGGACUGGAUCUACUGGGUUGACCUAA	0.154 ± 0.061
CUUAAGCUGUGGAUCUACUGGCUUACCUAA	0.0289 ± 0.021
CUUAAGGAGUGGAUCUACUGGGUUACCAA	0.0149 ± 0.0068
CUUAACCUCUGGAUCUACGGGUUACCUAA	0.0288 ± 0.006
CUUAACCUCUGGAUCUAGUGGGUUAGCUAA	0.0377 ± 0.007
GAAUUCCUGUGGAUCUACUGGGUUACCUUA	0.337 ± 0.038
CUUUUCCUCUGGAUCUACUGGCUUUCCUAA	0.0511 ± 0.013
CUUUUCCUCUGGAUCUACUGGGUUUCGUAA	0.236 ± 0.043
GAAUUCCUCUCGAUCUAGUGGGUUACCUAA	0.299 ± 0.03
GAAUUCCAUCUGGAUCUACUGGGUUACCUAA	0.466 ± 0.054
CUAUUCCUCUCGAUGUACUGGGUUACCUAA	0.636 ± 0.045
CUUAAGCUCUGGAUCUACUGGCUUACGUAA	0.0568 ± 0.014
CUUAAGCUGUGGUUCUACUGGGUUACCUAA	0.15 ± 0.033
CUUAAGGUCUGGAUCAACUGGGUUACCAAA	0.0964 ± 0.022
CUAUUCGUCUGGAUCUACAGGGUUACCUAA	0.164 ± 0.02
CUUAAGCACUGGAUCUUCUGGGUUACCUAA	0.227 ± 0.03

Sequence	pre-steady-state target cleavage rate
CUUAUCCUCUGGCUCUACUGGGUUACCUAA	0.574 ± 0.039
CUAUUCCUCUGGAUCUUCUGGCUUACCUAA	0.0185 ± 0.0076
CUUAUCCUCUGGAUCGACUGGGUUACCUAA	0.255 ± 0.037
CUUAAGCUCUGGAUGUACUGGGUUACCUAA	0.182 ± 0.023
GAAUUCCUCUGGAUCUACAGGGUUACCUAA	0.186 ± 0.024
CUUAAGGACUGGAUCUACAGGGUUACCUUA	0.0472 ± 0.011
CAAUUCCUCUGGAUCUACUGGCUUACCUAA	0.103 ± 0.019
CUUAUCCUCUGGAUCUACUGGCUUAGCUAA	0.00734 ± 0.004
CUUAACCUCUCGAUCUACUGGGUUACGUAA	0.551 ± 0.037
CAAUACCUGUGGAUCUACUGGGUUACCUAA	0.344 ± 0.04
CUUAAGGAGAGGCUCUACUGGGUUACCUAA	0.0146 ± 0.0025
CUUUUCCACUGGAUCUAGUGGGUUACCUAA	0.208 ± 0.02
CUUAAGCUCUGGAUCUACUGGGUUACCAAA	0.155 ± 0.025
CAAUUCCUCUGGAUCUACUGGGAUACGUAA	0.245 ± 0.07
CUUAAGGAGAGGAUCUACUGGGUUAACUAA	0.00944 ± 0.0055
CUUAUCCUCUGGAUAUACUGGGUUACCUAA	0.688 ± 0.052
CUAUUCCUCUGGAUCUACUGGGAUACGUAA	0.258 ± 0.044
CAAUUCCUGUGGAACUACUGGGUUACCUAA	0.261 ± 0.068
CAAUUCCUCUGGAUCUACUGGGUUUCCUUA	0.281 ± 0.067
CUUAAGGAGAGGAUCUACUGGGUUGACCUAA	0.00872 ± 0.005
GAAUUCCUCUGGUUGUACUGGGUUACCUAA	0.557 ± 0.032
CUUAAGGUCUGGAUACUACUGGGUUACCUAA	0.0967 ± 0.026
CUUAAGCACUGGAACUACUGGGUUACCUAA	0.326 ± 0.038
CUUAAGGUGUGGAUCUACUGGGUUACCUAA	0.216 ± 0.041
